Among the data in the supplement of paper PMC9446081 are relative growth values, retold here.

The whole screen tested about 39,000 compounds, of which about 220 (0.56%) showed activity. The list shows a part of the results.
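Note: static incubation at 37 °C against the wild-type strain, values averaged over two biological replicates.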

This assay concerns Escherichia coli K-12 BW25113. Briefly: relative growth (OD600 normalised to plate interquartile mean) (fraction); higher = less growth inhibition, active = 0.2 or less. The settings on record: 50 µM; LB; incubation time: overnight (16-24 h).
As to `C[C@@H]1CN([C@@H](C)CO)C(=O)Cc2cc(NC(=O)C3CC3)ccc2O[C@@H]1CN(C)C(=O)Nc1ccc(F)cc1`, the relative growth is inactive: 0.956.

For the compound `COc1ccc(NC(=O)Nc2ccc3c(c2)C(=O)N([C@@H](C)CO)C[C@@H](C)[C@@H](CN(C)Cc2ccc(-c4ccccc4)cc2)O3)cc1`, the relative growth is inactive: 1.08. For `C[C@@H]1CN([C@@H](C)CO)C(=O)Cc2cc(NS(C)(=O)=O)ccc2O[C@H]1CN(C)C(=O)NC1CCCCC1` the value was inactive: 0.981. The result for `C[C@H]1CN([C@@H](C)CO)S(=O)(=O)c2ccc(C#Cc3ccccc3)cc2O[C@H]1CN(C)S(=O)(=O)c1ccccc1F` reads inactive: 1.04. For `CN(C)CCNC(=O)c1ccccn1` the value was inactive: 1.03; for `OCc1ccccn1`, inactive: 1.01; for `CN1CCCC1CCOC(C)(c1ccccc1)c1ccc(Cl)cc1.O=C(O)C=CC(=O)O` (stereo not given), inactive: 1.01.

For the compound `O=C(C[C@@H]1C=C[C@@H](NC(=O)c2cccc(F)c2)[C@@H](CO)O1)NCCN1CCCC1`, the relative growth is inactive: 0.997. The result for `Cc1ccc(S(=O)(=O)Nc2cccc3c2O[C@H](CN(C)S(=O)(=O)c2cccs2)[C@@H](C)CN([C@@H](C)CO)C3=O)cc1` reads inactive: 1; that for `C[C@@H]1CN([C@H](C)CO)C(=O)Cc2cc(NC(=O)Cc3cn(C)c4ccccc34)ccc2O[C@H]1CN(C)Cc1ccc(-c2ccccc2)cc1`, inactive: 1.02; that for `C[C@@H]1CN([C@@H](C)CO)C(=O)c2cc(NC(=O)Nc3ccc(F)cc3)ccc2O[C@@H](C)CCCCO[C@H]1CN(C)Cc1ccc2c(c1)OCO2`, inactive: 0.993. For `COCC#Cc1ccc([C@H]2[C@@H](CO)N3C(=O)CN(C(=O)c4cccnc4)C[C@H]23)cc1` the value was inactive: 0.997; for `C[C@@H]1CN([C@@H](C)CO)C(=O)Cc2cc(NS(C)(=O)=O)ccc2O[C@H]1CN(C)Cc1ccc(C(F)(F)F)cc1`, inactive: 0.972; for `C[C@@H]1CCCCO[C@@H](CN(C)Cc2ccccc2)[C@H](C)CN([C@H](C)CO)C(=O)c2cc(NC(=O)c3ccccc3)ccc2O1`, inactive: 0.983. Regarding `CCO[C@@H]1OC(C(=O)N2CCN(Cc3ccccc3)CC2)=C[C@H](C)[C@H]1CCCOC(=O)NCCCCCC(=O)NO`, the relative growth is inactive: 1.02. The result for `COc1ccc(NC(=O)Nc2ccc3c(c2)C(=O)N([C@@H](C)CO)C[C@@H](C)[C@H](CN(C)C(=O)CCC(F)(F)F)OCCCC[C@@H](C)O3)cc1` reads inactive: 1.02; that for `CCCN(C)C[C@H]1OCCCC[C@@H](C)Oc2ccc(NC(=O)c3ccccc3)cc2C(=O)N([C@H](C)CO)C[C@@H]1C`, inactive: 1. `C[C@H]1CN([C@@H](C)CO)C(=O)c2cccc(NC(=O)C3CCCCC3)c2O[C@H]1CN(C)Cc1ccc(Cl)c(Cl)c1`: the relative growth was inactive: 0.992. `C[C@H]1CN([C@@H](C)CO)C(=O)c2cccc(NC(=O)C3CC3)c2O[C@H]1CN(C)Cc1ccc(-c2ccccc2)cc1`: the relative growth is inactive: 1.01. For `COCC#Cc1ccc([C@H]2[C@@H](CO)N3C(=O)CN(C(=O)C4CCOCC4)C[C@H]23)cc1` the value was inactive: 0.992.

Take `C[C@@H]1CN([C@H](C)CO)C(=O)c2cc(C#CC3CCCCC3)cnc2O[C@H]1CN(C)C(=O)c1ccncc1`: the relative growth is inactive: 0.982.

On to `CCOC(=O)c1c(CN2CCN(c3ccccc3)CC2)n(-c2ccccc2)c2cc(Br)c(OC)cc12`, for which the relative growth was inactive: 1.03. On to `C=C1CCOC(=O)[C@@H](NC(C)=O)CCCN(O)C(=O)/C=C(\C)CCOC(=O)[C@H](NC(C)=O)CCCN(O)C(=O)/C=C(\C)CCOC(=O)[C@@H](NC(C)=O)CCCN(O)C(=O)C1`, for which the relative growth was inactive: 0.817. For `C[C@H](CO)N1C[C@H](C)[C@H](CN(C)C(=O)Nc2ccc3c(c2)OCO3)Oc2c(NC(=O)Nc3cccc4ccccc34)cccc2C1=O` the value was inactive: 0.971; for `Cc1ccc(S(=O)(=O)N(C)C[C@@H]2Oc3c(NS(=O)(=O)c4cn(C)cn4)cccc3C(=O)N([C@H](C)CO)C[C@H]2C)cc1`, inactive: 1.01. The result for `C[C@@H]1CN([C@H](C)CO)C(=O)c2cc(NS(=O)(=O)c3ccc(Cl)cc3)ccc2O[C@@H](C)CCCCO[C@@H]1CN(C)C(=O)Cc1ccccc1` reads inactive: 1.02; that for `Cc1ccc(S(=O)(=O)N[C@@H]2C=C[C@@H](CC(=O)NCCN3CCCCC3)O[C@H]2CO)cc1`, inactive: 1; that for `C[C@@H]1CN([C@H](C)CO)C(=O)c2cc(NC(=O)Nc3ccc4c(c3)OCO4)ccc2O[C@@H](C)CCCCO[C@@H]1CN(C)S(=O)(=O)c1ccc(Cl)cc1`, inactive: 1.01. The result for `Cc1ccnc(=O)[nH]1` reads inactive: 0.947.

For the compound `COc1cccc(S(=O)(=O)N(C)C[C@H]2Oc3cc(C#CCN(C)C)ccc3S(=O)(=O)N([C@H](C)CO)C[C@@H]2C)c1`, the relative growth was inactive: 0.968. The result for `CC(C)NC(=O)N(C)C[C@H]1Oc2c(NC(=O)Nc3ccc4c(c3)OCO4)cccc2C(=O)N([C@@H](C)CO)C[C@H]1C` reads inactive: 0.993; that for `C[C@@H]1CCCCO[C@H](CN(C)Cc2ccc(C(F)(F)F)cc2)[C@@H](C)CN([C@H](C)CO)C(=O)c2cc(NC(=O)NC3CCCCC3)ccc2O1`, inactive: 1.02.

Take `COc1ccc(NC(=O)Nc2ccc3c(c2)[C@H]2C[C@H](CC(=O)NCC(F)(F)F)O[C@@H](CO)[C@H]2O3)cc1`: the relative growth is inactive: 1.04. As for `O=C(N[C@H]1CC[C@H](CC(=O)N2CCOCC2)O[C@@H]1CO)c1ccc2c(c1)OCO2`, the relative growth is inactive: 0.982. For the compound `COc1ccc2c3c(n(c2c1)C)[C@H](CO)N(CC1CCOCC1)C[C@]13CN(C1)C(=O)Cc1cccnc1`, the relative growth was inactive: 1.02. The result for `Cc1ccc(S(=O)(=O)N(C)C[C@@H]2Oc3ccc(NC(=O)Nc4ccc(C(F)(F)F)cc4)cc3CC(=O)N([C@H](C)CO)C[C@@H]2C)cc1` reads inactive: 1.03; that for `C[C@@H]1CN([C@H](C)CO)C(=O)c2cc(NC(=O)NC3CCCCC3)ccc2O[C@@H]1CN(C)C(=O)Nc1cccc2ccccc12`, inactive: 0.925; that for `C[C@H]1CN([C@@H](C)CO)C(=O)c2cc(NS(C)(=O)=O)ccc2O[C@@H]1CN(C)Cc1ccc(C(=O)Nc2ccccc2N)cc1`, inactive: 1. For `COc1ccc(NC(=O)Nc2ccc3c(c2)C(=O)N([C@H](C)CO)C[C@H](C)[C@@H](CN(C)CC2CC2)OCCCC[C@@H](C)O3)cc1`, the relative growth was inactive: 0.978. Take `C[C@@H]1CN([C@@H](C)CO)C(=O)c2cc(NC(=O)Nc3ccccc3)ccc2O[C@@H](C)C/C=C\CO[C@H]1CN(C)S(=O)(=O)c1ccc(F)cc1`: the relative growth is inactive: 1.02. `Cc1ccc(S(=O)(=O)Nc2ccc3c(c2)C(=O)N([C@@H](C)CO)C[C@H](C)[C@H](CN(C)S(=O)(=O)c2ccccc2)O3)cc1`: the relative growth was inactive: 1.04. The result for `Cc1ccc(C)c(S(=O)(=O)N2[C@@H]3CC[C@@H](C3)[C@H]2c2nc3cccc(OCc4ccc(F)cc4)c3[nH]2)c1` reads inactive: 1.01; that for `COc1ccc(S(=O)(=O)N(C)C[C@H]2Oc3c(NS(=O)(=O)c4cn(C)cn4)cccc3C(=O)N([C@@H](C)CO)C[C@@H]2C)cc1`, inactive: 0.997.

Take `COCC(=O)N1C[C@H](C)[C@@H](OC)CN(C)C(=O)c2cc(NC(=O)c3ccc(F)cc3)ccc2OC[C@@H]1C`: the relative growth is inactive: 1. The result for `COCCNC(=O)c1cn(C)nc1OC` reads inactive: 1.01; that for `C[C@H](CO)N1C[C@H](C)[C@H](CN(C)S(=O)(=O)c2ccc(Cl)cc2)Oc2ccc(NC(=O)C3CC3)cc2CC1=O`, inactive: 1; that for `COc1ccccc1-c1ccc2c(c1)O[C@H](CN(C)C(=O)c1cccnc1)[C@@H](C)CN([C@H](C)CO)S2(=O)=O`, inactive: 0.991. For the compound `C[C@@H]1CCCCO[C@H](CN(C)Cc2ccncc2)[C@@H](C)CN([C@@H](C)CO)C(=O)c2cc(NC(=O)Nc3ccccc3)ccc2O1`, the relative growth is inactive: 1.02. For `C[C@H](CO)N1C[C@H](C)[C@H](CN(C)S(=O)(=O)c2ccc(F)cc2)Oc2cc(C3=CCCC3)ccc2S1(=O)=O` the value was inactive: 1.02; for `C[C@H](CO)N1C[C@H](C)[C@@H](CN(C)C(=O)[C@H](C)c2ccccc2)OCc2ccccc2-c2c(n(C)c3ccccc23)C1=O`, inactive: 1.02. For `C[C@H]1CN([C@@H](C)CO)C(=O)c2cc(NC(=O)Nc3cccc4ccccc34)ccc2O[C@H]1CN(C)C(=O)Nc1ccc(F)cc1` the value was inactive: 0.931; for `C[C@H](CO)N1C[C@H](C)[C@@H](CN(C)Cc2ccc(Oc3ccccc3)cc2)Oc2ccc(NS(=O)(=O)c3ccc(Cl)cc3)cc2C1=O`, inactive: 0.976; for `COc1cccc(S(=O)(=O)N(C)C[C@H]2Oc3ncc(-c4cccc(C(=O)N(C)C)c4)cc3C(=O)N([C@@H](C)CO)C[C@H]2C)c1`, inactive: 0.979.

Consider `C[N+](C)(C)CCCC[C@@H]1NC(=O)[C@H]2C[C@@H](C(=O)NCCCCCCN)[C@@H](c3ccc(O)cc3)N2C1=O`, for which the relative growth was inactive: 0.947. The result for `Cc1nc(-c2ccccc2)oc1CN` reads inactive: 0.998. `O=C(N[C@@H](c1ccccc1)c1ccc2ccccc2n1)C1CCN(Cc2cccc(C(F)(F)F)c2)CC1`: the relative growth was inactive: 1.02. The result for `COc1ccc(NC(=O)Nc2ccc3c(c2)C(=O)N([C@@H](C)CO)C[C@H](C)[C@H](CN(C)C(=O)CCC(F)(F)F)OCCCC[C@@H](C)O3)cc1` reads inactive: 0.991; that for `C[C@@H]1CN([C@@H](C)CO)C(=O)c2cc(NS(C)(=O)=O)ccc2O[C@H]1CN(C)S(=O)(=O)c1ccc(Cl)cc1`, inactive: 0.992. For `C[C@H](CO)N1C[C@H](C)[C@H](CN(C)C(=O)Nc2ccc3c(c2)OCO3)Oc2ccc(N(C)C)cc2CC1=O` the value was inactive: 0.989; for `NC(=S)N[C@H]1C[C@@H]2C=C[C@H]1C2`, inactive: 1.
